Measurements as given in patent US20170015708A1 (BIOKINE THERAPEUTICS, published 2017).
Values belong to the binder of their own block, whether it stands above or below them.

What was measured:
MIG (human) [1] = biological target: T1, MIG (human) (human, UniProt Q07325 23-125); test: SPR, polypeptide immobilised on carboxymethyldextran, chemokine injected
T1 construct: Commercial chemokine; also called CXCL9; Monokine induced by gamma-interferon
T1 sequence (looked up): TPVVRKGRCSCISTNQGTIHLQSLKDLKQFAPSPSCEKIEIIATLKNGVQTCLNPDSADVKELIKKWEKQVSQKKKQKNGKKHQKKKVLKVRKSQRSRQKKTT

RANTES (human) [2] = biological target: T2, RANTES (human) (human, UniProt P13501 24-91); test: as above
T2 construct: Commercial chemokine; also called CCL5
T2 sequence (looked up): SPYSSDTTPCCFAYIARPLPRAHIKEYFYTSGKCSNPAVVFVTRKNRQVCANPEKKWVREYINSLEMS

I-TAC (human) [3] = biological target: T3, I-TAC (human) (human, UniProt O14625 22-94); test: as above
T3 construct: Commercial chemokine; also called CXCL11; Interferon-inducible T-cell alpha chemoattractant
T3 sequence (looked up): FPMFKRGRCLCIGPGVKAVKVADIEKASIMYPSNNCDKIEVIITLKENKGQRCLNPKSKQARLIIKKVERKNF

MCP-1 (human) [4] = biological target: T4, MCP-1 (human) (human, UniProt P13500 in part); test: as above
T4 construct: Commercial chemokine; also called CCL2; Monocyte chemotactic protein-1

IP-10 (human) [5] = biological target: T5, IP-10 (human) (human, UniProt P02778 22-98); test: as above
T5 construct: Commercial chemokine; also called CXCL10; 10 kDa Interferon-gamma-induced protein
T5 sequence (looked up): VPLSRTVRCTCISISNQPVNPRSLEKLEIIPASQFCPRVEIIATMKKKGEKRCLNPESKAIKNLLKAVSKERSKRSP

Eotaxin (human) [6] = biological target: T6, Eotaxin (human) (human, UniProt P51671 24-97); test: as above
T6 construct: Commercial chemokine; also called CCL11

MIG (human) [7] = biological target: T1, MIG (human); test: cell-based or functional assay
RANTES (human) [8] = biological target: T2, RANTES (human); test: cell-based or functional assay
I-TAC (human) [9] = biological target: T3, I-TAC (human); test: cell-based or functional assay
MCP-1 (human) [10] = biological target: T4, MCP-1 (human); test: cell-based or functional assay
T4 sequence (P13500 24-99 limits assumed): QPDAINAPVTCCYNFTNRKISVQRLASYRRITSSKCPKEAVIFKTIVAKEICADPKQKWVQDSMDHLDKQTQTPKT

IP-10 (human) [11] = biological target: T5, IP-10 (human); test: cell-based or functional assay
Eotaxin (human) [12] = biological target: T6, Eotaxin (human); test: cell-based or functional assay

Kd (MIG (human) [1]): 130 nM
Kd (RANTES (human) [2]): 18 nM
Kd (I-TAC (human) [3]): 83 nM
Kd (MCP-1 (human) [4]): 6500 nM
Kd (IP-10 (human) [5]): 38 nM
Kd (Eotaxin (human) [6]): 27000 nM
Inhibition of chemokine-dependent T cell adhesion to VCAM-1 (++ = 100% inhibition) (MIG (human) [7]): 100 % inhibition
Inhibition of chemokine-dependent T cell adhesion to VCAM-1 (++ = 100% inhibition) (RANTES (human) [8]): 100 % inhibition
Inhibition of chemokine-dependent T cell adhesion to VCAM-1 (++ = 100% inhibition) (I-TAC (human) [9]): 100 % inhibition
Inhibition of chemokine-dependent T cell adhesion to VCAM-1 (++ = 100% inhibition) (MCP-1 (human) [10]): 100 % inhibition
Inhibition of chemokine-dependent T cell adhesion to VCAM-1 (++ = 100% inhibition) (IP-10 (human) [11]): 100 % inhibition
Inhibition of chemokine-dependent T cell adhesion to VCAM-1 (++ = 100% inhibition) (Eotaxin (human) [12]): 100 % inhibition
B1: BKT-P2-FC (Fc fusion)
chain: VPPSIPSHSIHSAKAGGGSKGF[omitted - human IgG1 Fc with changes]
notes: also called IL6 signal peptide-BKT-P2-Spacer-FC; BKT-Fc-2

Kd (MIG (human) [1]): 18 nM
Kd (I-TAC (human) [3]): 370 nM
Kd (MCP-1 (human) [4]): 46 nM
Kd (IP-10 (human) [5]): 6.3 nM
Kd (Eotaxin (human) [6]): 5000 nM
Inhibition of chemokine-dependent T cell adhesion to VCAM-1 (++ = 100% inhibition) (MIG (human) [7]): 100 % inhibition
Inhibition of chemokine-dependent T cell adhesion to VCAM-1 (++ = 100% inhibition) (RANTES (human) [8]): 100 % inhibition
Inhibition of chemokine-dependent T cell adhesion to VCAM-1 (++ = 100% inhibition) (I-TAC (human) [9]): 100 % inhibition
Inhibition of chemokine-dependent T cell adhesion to VCAM-1 (++ = 100% inhibition) (MCP-1 (human) [10]): 100 % inhibition
Inhibition of chemokine-dependent T cell adhesion to VCAM-1 (++ = 100% inhibition) (Eotaxin (human) [12]): 100 % inhibition
B2: BKT-P46-FC (Fc fusion)
chain: VPPLDYPIPQTVLHHGGGSKGF[omitted - human IgG1 Fc with changes]
notes: also called IL6 signal peptide-BKT-P46-Spacer-FC; BKT-Fc-46
